Results taken from PubChem BioAssay AID463173 (ICCB-Longwood Screening Facility, Harvard Medical School, 2010).
About 1,700 (3.3%) of roughly 52,000 compounds were called active. Rule as the data show it: active = survival mostly below about 52% (no sharp cut-off); inactive = mostly above about 56%. This is one part of the list.

system: Wild type; experiment: growth inhibition of S. aureus wild type versus tarO mutant, primary screen, teichoic acid synthesis inhibitors, RN4220, OD600 (AID 463173); conditions: S. aureus RN4220 wild type/DeltatarO growth, OD600, 18 h, active compounds read low, screened at 18.75 µg/mL (by protocol)

SMILES	survival
CC1N=C2c3ccccc3N=C(SCC(=O)NCCc3ccccc3)N2C1=O (stereo unspecified)	inactive: 64%
COc1ccc(Nc2c3c(nc4ccc(NC(=O)c5ccc(F)cc5)cc24)CCCC3)cc1OC	inactive: 100%
CN(Cc1ccccc1)C(=O)c1nc(-c2ccc(Cl)cc2)n2c1CCCCC2	inactive: 70%
O=C(Nc1cccc(Cl)c1Cl)c1ccc2c(c1)N(Cc1cccc(Cl)c1)C(=O)c1ccccc1S2(=O)=O	inactive: 139%
Cc1nc2nc(NCc3cccc(Br)c3)[nH]n2c(=O)c1Cc1ccccc1	inactive: 68%
COc1cc2ccccc2cc1C(=O)Nc1cccc(-c2nc3cc(C)c(C)cc3o2)c1C	inactive: 77%
COc1ccc2oc(=O)c(C(=O)NCCc3c(C)[nH]c4c(Cl)cccc34)cc2c1	inactive: 98%
CCc1ccccc1NC(=O)N1CCN(c2cc(-c3noc(C)n3)ccc2C)CC1	inactive: 159%
Cc1ccc(CN(C(=O)COc2cccc([N+](=O)[O-])c2)c2ccccn2)o1	inactive: 78%
O=S(=O)(Nc1ccc(Cl)cc1)c1ccc(NS(=O)(=O)c2ccc3c(c2)OCCO3)cc1	inactive: 28%
CCOC(=O)c1cccc(NC(=O)C(CC(C)C)N2Cc3ccccc3C2=O)c1 (stereo unspecified)	inactive: 121%
CS(=O)(=O)N(CC(=O)N1CCCCC1)Cc1ccccc1	inactive: 106%
CCC(=O)N1CCc2cc(Br)cc(S(=O)(=O)N3CCCC(C(=O)Nc4ccc(OC)c(Cl)c4)C3)c21 (stereo unspecified)	inactive: 106%
COc1ccc(OC)c(CNC(=O)CCCn2ccc3cc(S(=O)(=O)N4CCCC4)ccc32)c1	inactive: 85%
CCNc1nc(NCC)nc(N(C)N)n1	inactive: 98%
COc1cc(-c2noc(-c3ccc(NCc4cccnc4)c([N+](=O)[O-])c3)n2)cc(OC)c1OC	inactive: 122%
CCn1c2ccccc2c2nnc(SCCN3CCCCC3)nc21	inactive: 62%
N#C/C(=C/c1cn(Cc2ccc(F)cc2)c2ccccc12)C(=O)Nc1cccc(Cl)c1	inactive: 85%
COC(=O)CC1c2cc(OC)c(OC)cc2CCN1C(=O)Nc1ccc(C)cc1Cl (stereo unspecified)	inactive: 105%
COc1ccccc1Nc1nn2c(=O)c3ccc(C(=O)NCCCOC(C)C)cc3nc2s1	inactive: 83%
C=CCNC(=O)Cn1nc(-c2ccccc2F)ccc1=O	inactive: 101%
CCOc1ccc(CNC(=O)CCC(=O)N2CC(C)Sc3ccccc32)cc1 (stereo unspecified)	inactive: 80%
CCCc1cc(=O)[nH]c(Nc2ccc(C(=O)O)cc2)n1	inactive: 85%

SMILES	survival
CCOc1ccc(CCNC(=O)CCCn2nc(C)c3sc4ccccc4c3c2=O)cc1OCC	inactive: 108%
O=C(CSc1nccn1-c1ccccc1)Nc1nc2ccccc2s1	inactive: 95%
CCC1CN(C(=O)N2CCC(C(=O)NCCN(C)C)CC2)c2ccccc2O1 (stereo unspecified)	inactive: 85%
Cn1ccc2cc(S(=O)(=O)N3CCCN(C(=O)Nc4ccccc4Br)CC3)ccc21	inactive: 93%
CCOc1ccc(OCC)c(NC(=O)Cn2ncc3c4ccccc4n(Cc4ccccc4)c3c2=O)c1	inactive: 89%
CCc1ccc(CNC(=O)c2cccc(-n3cnc4cccnc43)c2C)cc1	inactive: 69%
Cc1ccc(NC(=O)c2cnc(SCC(=O)N3CCOCC3)n(C)c2=O)cc1	inactive: 60%
CCOc1ccccc1NC(=O)CC1SC(=N)N(c2ccccc2)C1=O (stereo unspecified)	inactive: 111%
COc1ccc(C)cc1N(C)C(=O)c1c(C)oc2ncnc(N3CCOCC3)c12	inactive: 72%
COc1cccc(NC(=O)CN(C)S(=O)(=O)c2ccc3nc(C)sc3c2)c1	inactive: 66%
COc1ccc(NC(=O)/C(C#N)=C/C=C/c2ccco2)cc1	inactive: 111%
CC1CC2(NC(=O)NC2=O)C(C)CN1C (stereo unspecified)	inactive: 107%
CN(c1ccc(Cl)cc1)S(=O)(=O)c1nnc(NC(=O)C2CCCCC2)s1	inactive: 109%
COc1cc(C(=O)Oc2c(Sc3ccc(C)cc3)c(C)nn2-c2ccccc2)cc(OC)c1OC	inactive: 111%
COC(=O)c1c(C)sc(-c2c(-c3ccc4c(c3)OCCO4)[nH]c3c2c(=O)n(C)c(=O)n3C)c1O	inactive: 81%
O=C1c2ccccc2C(=O)N1CC(O)COC1CCCCC1 (stereo unspecified)	inactive: 114%
CCNC(=O)c1cnc2sc(N3CCCCCC3)nn2c1=O	inactive: 68%
Nc1ccc(C(=O)N2CCCC2)cc1	inactive: 104%
CCOc1ccccc1NC(=O)c1c(NC(=O)c2ccccc2C)sc2c1CCC(C)C2 (stereo unspecified)	inactive: 75%
Nc1nnc(SCC(=O)Nc2ccccc2C(F)(F)F)s1	inactive: 140%
Cc1cccc(Nc2cc(=O)[nH]c(=O)[nH]2)c1	inactive: 122%
COC(=O)c1n[nH]n(-c2ccccc2)c1=O	inactive: 79%
CCC(C)NC(=O)c1cnn(-c2ccc(Cl)cc2)c1C1CCN(C(=O)OC(C)(C)C)CC1 (stereo unspecified)	inactive: 77%

SMILES	survival
O=C(NCCc1ccc(Cl)cc1)c1ccc(CS(=O)Cc2cccc(Cl)c2)o1 (stereo unspecified)	inactive: 30%
CN(C1CCCCC1)S(=O)(=O)c1ccc2c(c1)c(=O)c(C(=O)NCCc1ccccc1)cn2C	inactive: 84%
Cc1ccn2c(Nc3ccc4c(c3)OCCO4)c(-c3ccc(Cl)s3)nc2c1	inactive: 75%
Cc1cccc(NC(=O)C2CCCN(S(=O)(=O)c3cnc[nH]3)C2)c1C (stereo unspecified)	inactive: 86%
Cc1ccc2c(c1)cc(C(=O)Nc1ccc(F)cc1F)n2C	inactive: 121%
O=C1Cc2ccccc2CC(=O)N1	inactive: 108%
CC(=O)NC(NC(C)=O)C(=O)c1ccccc1	inactive: 105%
O=C(Cn1cc(/C=C2\SC(=S)NC2=O)c2ccccc21)NCc1ccco1	inactive: 107%
Cc1oc(-c2ccc(C(=O)Nc3cc(F)ccc3F)cc2)nc1COc1ccccc1	inactive: 89%
CCOC(=O)c1cc(NC(=O)c2ccc(F)cc2)c(=O)n2c1oc1ccccc12	inactive: 86%
Cc1ccc(C(=O)N(Cc2ccc(N(C)C)cc2)Cc2ccco2)cc1	inactive: 83%
Cn1c(=O)c2cc(C(=O)N3CCN(c4ccc(Cl)cc4)CC3)sc2c2ccccc21	inactive: 68%
CCN(CC)c1nn2c(=O)c(C(=O)NCc3ccc(F)cc3)cnc2s1	inactive: 73%
CCCn1c2ccccc2c2cnn(CC(=O)NCCc3ccc(OC)cc3OC)c(=O)c21	inactive: 72%
CCNC(=O)Cc1ccc(NC(=O)N2CCCCc3ccccc32)cc1	inactive: 81%
Cc1nc(-c2ccccc2)sc1CCNS(=O)(=O)c1ccc(Br)cc1	inactive: 123%
COc1ccc(CNC(=O)C(c2cccs2)N(Cc2cccs2)C(=O)Cc2cccs2)cc1 (stereo unspecified)	inactive: 116%
CCn1nc(C)c(CCN(C)C(=O)Nc2cc(Cl)ccc2C)c1C	inactive: 87%
Cc1ccc(CNC(=O)CCS(=O)(=O)c2cc(Br)cc3c2N(C(=O)C2CC2)CC3)cc1	inactive: 136%
O=C(Nc1ccc(Cl)cc1)N1CCN(c2ccc3nnc(-c4ccc(F)cc4)n3n2)CC1	inactive: 93%
Cc1ccc(-n2nc(CO)c(C(=O)NCc3cccs3)n2)cc1	inactive: 91%
O=C(O)CSc1ccc(Oc2ccc(SCC(=O)O)cc2)cc1	inactive: 105%
Cc1cc(C)c(S(=O)(=O)NCC(c2cccs2)S(=O)(=O)c2ccccc2)c(C)c1 (stereo unspecified)	inactive: 148%

SMILES	survival
COc1ccccc1CCNC(=O)C(=O)NCC(c1ccco1)S(=O)(=O)c1ccc(C)cc1 (stereo unspecified)	inactive: 134%
CCC(=O)N1CCc2cc(S(=O)(=O)CCC(=O)NCc3ccccc3OC)ccc21	inactive: 86%
CCCCn1c(CNC(=O)c2ccc(OC)cc2)nnc1SCC(=O)Nc1ccc(OC)cc1	inactive: 81%
Cc1cc(NC(=O)Nc2nc3c(s2)CCCCCC3)ccc1Br	inactive: 80%
Cc1ccc(NCc2nc3ccccc3n2CCOc2ccccc2)cc1	active: -20%
COc1ccccc1Nc1cc(C(=O)NCc2cccs2)c2ccccc2n1	inactive: 91%
COc1ccccc1-c1nnc(C2CCN(C(=O)c3ccc(C)cc3)CC2)o1	inactive: 91%
COc1ccc(-c2noc(-c3nnn(-c4cc(C)ccc4C)c3N)n2)cc1	inactive: 98%
NC(=O)CSc1ncc2c(n1)-c1ccccc1N(Cc1cccc(F)c1)S2(=O)=O	inactive: 73%
COc1ccc2nc3oc(C(=O)NCc4ccccc4OC)cc3cc2c1	inactive: 88%
Cc1ccc(-c2nc(CS(=O)CC(=O)N3CCN(c4ccc(Cl)cc4)CC3)c(C)o2)cc1 (stereo unspecified)	inactive: 73%
CN(C)S(=O)(=O)c1ccc2c(c1)N(CC(=O)N1CCN(c3ccc(F)cc3)CC1)CCS2	inactive: 87%
CC1(C)CC(=O)c2c(oc3c(Cl)cc(NS(=O)(=O)c4ccc(Cl)cc4)cc23)C1	inactive: 90%
CCN(CC)CCNC(=O)c1ccc(Cn2c(=O)c3cccn3c3cccnc32)cc1	inactive: 96%
CC1CCN(c2ccc(-c3nc(C(C)C)no3)cc2[N+](=O)[O-])CC1	inactive: 81%
N#Cc1ccccc1CSc1nc(N)cc(N)n1	inactive: 92%
Cc1cc(NC(=O)CSc2ncc(C(=O)Nc3ccc(F)cc3)c(=O)n2C)no1	inactive: 77%
Cc1nc2ccccc2c(=O)n1-c1ccc(NC(=O)C(F)(F)F)cc1	inactive: 88%
Cc1ccc(-n2ncc(C(=O)NCCc3ccsc3)c2C2CCN(C(=O)OC(C)(C)C)CC2)cc1C	inactive: 73%
O=c1oc2ccc(Br)cc2cc1-c1csc(-c2ccc(Cl)cc2)n1	inactive: 74%
O=C(CC(NCc1cccnc1)C(=O)O)Nc1ccc(F)cc1 (stereo unspecified)	inactive: 71%
CCCNC(=O)c1ccc(-n2c(-c3ccccc3)cc3c2CCC(C)C3)cc1 (stereo unspecified)	inactive: 121%
